In PubChem BioAssay AID1458 (National Center for Advancing Translational Sciences (NCATS), 2008):
Out of some 210,000 compounds screened, about 5,900 (2.8%) were called active. The shares of active, inactive and inconclusive entries below differ from those in the screen. Calls come from the whole dose curve; as a rule, active = well fitted activation curve with a large enough effect; inconclusive = small, poorly fitted or top-dose-only effect; inactive = no such curve, though single readings can be large or run the other way. A potency beside an inconclusive call is a rough fit, not a confirmed value.

Assay: qHTS Assay for Enhancers of SMN2 Splice Variant Expression; note: nearly all actives have a fitted effect of over 55% in size
Settings: HEK293 SMN2-luciferase splicing reporter, luminescence, 30-36 h; series mostly up to 46.1 µM
Summary of the method: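 HEK293 cells carry an SMN2 minigene-luciferase reporter in which exon 7 inclusion puts luciferase in frame. Cells were seeded at 2000 cells/well, attached for 10-12 hours, then exposed to compounds for 30-36 hours at 37C before ONE-Glo luminescence.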
Potency is the fitted concentration of half-maximal effect; tags give direction and shape of the fitted curve.

Compound | Potency
COc1ccc(N2CCN(c3nc4ccccc4nc3NS(=O)(=O)c3ccccc3)CC2)cc1 | inconclusive: 5.62 µM [activator, single point]
CC1(C)CN(c2ccc(N3CC(C)(C)C3=O)cc2)C1=O | inconclusive: 35.5 µM [activator, single point]
CCCCOc1ccc(C(=O)Nc2cccc(C)n2)cc1 | inconclusive: 12.6 µM [activator, partial curve, poor fit]
CCOC(=O)c1c(NC(=O)C2c3ccccc3Oc3ccccc32)sc2c1CCC(CC)C2 (stereo unspecified) | inactive
CCCOc1ccc(-c2cn3ccccc3n2)cc1[N+](=O)[O-] | active: 1.58 µM
COc1ccc(NC(=S)Nc2ncccc2C)c(OC)c1 | inconclusive: 35.5 µM [activator, single point]
COc1cc2c(cc1NC(=O)c1cccnc1)oc1ccccc12 | inconclusive: 35.5 µM [activator, single point]
O=C(O)c1ccc2nc(-c3ccccc3)sc2c1 | active: 0.1 µM
Cc1sc2ncnc(N3CCCCC3)c2c1C | inconclusive: 5.62 µM [activator, single point]
CCNS(=O)(=O)c1ccc2c(c1)NCC2 | inconclusive: 11.2 µM [activator, single point]
CC(=O)c1cc(CC=C(C)C)c(O)cc1O | inconclusive: 1.41 µM [activator, partial curve]
Cc1nc(NC(=O)c2cc3c(s2)CCCCC3)sc1C(=O)N(C)C | inconclusive: 10 µM [activator, partial curve]
Cc1cc(C(=O)OCC(=O)c2c(N)n(C)c(=O)n(C)c2=O)c(C)n1-c1ccccc1 | inconclusive: 0.005 µM [activator, full curve, poor fit]
O=C(N/N=C/c1ccc(Br)s1)c1c[nH]c2ccccc12 | active: 8.91 µM
COCCn1c(C)cc(/C=C2\NC(=S)N(C)C2=O)c1C | active: 11.2 µM
NC(=O)c1ccccc1N/C=C/C(=O)c1ccccc1 | active: 7.08 µM
Cc1cc2nc(-c3ccc(NC(=O)c4cccnc4)cc3)oc2cc1C | active: 12.6 µM
C(=N/N1CCN(c2ccccc2)CC1)/c1cccs1 | inconclusive: 35.5 µM [activator, single point]
Cc1cccnc1NC(=O)C1COc2ccccc2O1 (stereo unspecified) | inactive
COc1ccccc1OC(=O)C1CC(=O)N(c2ccc(Cl)cc2)C1 (stereo unspecified) | inconclusive: 5.62 µM [activator, single point]
COC(=O)CCN(c1ccccc1)C(CNS(=O)(=O)c1ccccc1)c1ccccc1 (stereo unspecified) | inconclusive: 0.355 µM [activator, full curve, poor fit]
CCc1ccc(NC(=O)Cc2ccc(OC)cc2)cc1 | inconclusive: 11.2 µM [activator, partial curve, poor fit]
Cc1ccc(OCCCN2CCOCC2)c([N+](=O)[O-])c1 | inconclusive: 10 µM [activator, partial curve, poor fit]
CC1CCC/C(=N/Nc2nc3ccccc3s2)C1 (stereo unspecified) | active: 11.2 µM
COC(=O)c1cc(-c2ccc(OC)cc2)n[nH]1 | inconclusive: 12.6 µM [activator, partial curve]
Cc1nn(-c2ccccc2)c(N)c1C(O)(C(F)(F)F)C(F)(F)F | inactive

Compound | Potency
CCOC(=O)c1sc(NC(=O)c2cc3n(n2)C(C(F)(F)F)CC(c2ccccc2)N3)c(C(=O)OCC)c1C (stereo unspecified) | inconclusive: 11.2 µM [activator, partial curve, poor fit]
O=C(Nc1sc2c(c1C(=O)O)CCCC2)c1cccs1 | inconclusive: 12.6 µM [activator, partial curve]
CCOc1ccccc1C(=O)N/N=C/c1c[nH]c2ccccc12 | inactive
CCCCC(=O)Nc1cccc(-c2nn3c(C)nnc3s2)c1 | inconclusive: 3.98 µM [activator, full curve, poor fit]
CCOC(=O)N1CCC(NC(=O)C2CCN(S(=O)(=O)N3CCCC3)CC2)CC1 | inactive
Cc1ccnc(NC(=O)C2CCCN(S(=O)(=O)c3cnc[nH]3)C2)c1 (stereo unspecified) | inconclusive: 1.78 µM [activator, partial curve]
S=C(Nc1cccc(Cl)c1)NC1CCCCC1 | inactive
N#Cc1cnc(NN)nc1 | inactive
COc1cc(C(=O)Nc2ccc3oc(-c4cccnc4)nc3c2)cc(OC)c1OC | inactive
Cn1c(=O)n(CC(=O)O)c(=O)c2c1nc1n2CCCN1c1ccc(Cl)cc1 | inactive
CCCC(=O)OCC(=O)c1[nH]c(C)c(C(C)=O)c1C | inactive
O=C(COc1cccc2c1CCN(Cc1ccc(Br)cc1)C2=O)N1CCOCC1 | inactive
Cc1ccc(Nc2ncnc3sc(C)c(C)c23)cc1C | inconclusive: 7.08 µM [activator, partial curve]
Cc1cccc(N=C2NC(=O)c3cc([N+](=O)[O-])ccc32)c1 | inactive
CC(NC(=O)COC(=O)CC(c1ccccc1)c1ccccc1)c1ccccc1 (stereo unspecified) | inactive
O=C(NCc1ccncc1)C(=O)NCC(c1ccco1)N1CCN(c2ccccc2)CC1 (stereo unspecified) | inactive
Cc1csc(-c2cnn(-c3ccccc3)c2NC(=O)c2cccc(F)c2)n1 | inconclusive: 3.55 µM [activator, single point]
Cc1nn(-c2ccccc2)c2sc(C(=O)Nc3cccc(Cl)c3)cc12 | inactive
CCOC(=O)c1c(NC(=O)/C=C/c2ccc(OCC)cc2)sc(C(C)=O)c1C | inactive
O=C(O)c1ccc(F)c(S(=O)(=O)Nc2ccccc2Cl)c1 | inconclusive: 3.16 µM [activator, partial curve, poor fit]
c1ccc2oc(-c3ccc4nc[nH]c4c3)nc2c1 | active: 12.6 µM
O=C(Cn1nnc(-c2cccs2)n1)N1CCOCC1 | inactive
COCc1cc(C)nc2sc(C(=O)Nc3ccc(C(C)=O)cc3)c(N)c12 | inconclusive: 35.5 µM [activator, partial curve]
CC(=O)c1ccc(NC(=O)COc2ccc3c(c2)OCO3)cc1 | inactive
CCC(=O)Nc1ccc(C(=O)Nc2cccnc2)cc1 | inconclusive: 14.1 µM [activator, partial curve, poor fit]
O=C(O)/C(=C\c1ccc(Br)cc1)c1ccc(S(=O)(=O)N2CCCCC2)s1 | inactive

Compound | Potency
O=C(Cn1c(/C=C/c2ccccc2)nc2ccccc21)Nc1ccc(F)cc1 | inconclusive: 11.2 µM [activator, partial curve, poor fit]
Cc1ccc2oc(=O)c3cnn(CC(=O)N4CCN(c5ccccc5F)CC4)c3c2c1 | inactive
Cc1c(C(=O)O)cccc1-c1ccc(C=O)o1 | inconclusive: 20 µM [activator, partial curve, poor fit]
O=C(c1cccc(F)c1)N1CCN(c2cccc(C(F)(F)F)c2)CC1 | inconclusive: 0.0032 µM [activator, full curve, poor fit]
COc1ccc(C2CC(=O)c3cc(-c4nc(-c5ccc(C)cc5)cs4)c(=O)[nH]c3C2)cc1 (stereo unspecified) | inactive
O=C(NC1CCCC1)C(c1cccs1)N(Cc1ccco1)C(=O)Cn1nnc(-c2cccs2)n1 (stereo unspecified) | inconclusive: 0.501 µM [activator, partial curve]
COC(=O)c1nc2cc(C)ccn2c1F | inconclusive: 5.62 µM [activator, single point]
CCOC(=O)COc1cc(C)c(Cl)cc1C(=O)c1ccn2nc(-c3ccc(OC)cc3)cc2n1 | inactive
CCCCn1c(NCc2ccc3c(c2)OCO3)nc2ccccc21 | inconclusive: 2.51 µM [activator, partial curve]
O=C(CCNS(=O)(=O)c1ccc(Cl)cc1)NCc1cccs1 | inactive
COC(=O)c1ccc(C)c(NC(=O)Cn2cnc3ccccc3c2=O)c1 | inconclusive: 1.58 µM [activator, full curve]
Oc1ccc(N=Nc2n[nH]c(-c3ccc(Br)cc3)n2)cc1 | active: 15.8 µM
Cc1ccc(S(=O)(=O)Nc2cc(-c3nn(C)c(=O)c4ccccc34)ccc2N2CCOCC2)cc1 | inconclusive: 22.4 µM [activator, partial curve, poor fit]
CCOC(=O)c1ccc(NC(=O)C2CCCO2)cc1 (stereo unspecified) | inactive
COc1ccc(NC2CS(=O)(=O)CC2NCc2ccccc2)cc1 (stereo unspecified) | inactive
NS(=O)(=O)c1ccc(NC(=S)Nc2nn(Cc3ccc(Cl)cc3Cl)cc2Cl)cc1 | inactive
CCN(CC)S(=O)(=O)c1ccc2c(c1)N(CC(=O)NCCc1ccccc1)C(=O)CO2 | inconclusive: 10 µM [activator, partial curve]
CC1CCN(C(=O)COC(=O)c2n[nH]c3ccccc23)CC1 | inconclusive: 11.2 µM [activator, partial curve]
COc1ccc(/C=C/C(=O)Nc2cccc(F)c2)cc1S(=O)(=O)N1CCOCC1 | inactive
CN(C(=O)c1ccncc1)c1nnc(-c2ccccn2)s1 | inconclusive: 11.2 µM [activator, partial curve, poor fit]
CCOC(=O)c1cc(-c2ccccc2)sc1NC(=O)CN1C(=O)NC(CC)(c2ccc(F)cc2)C1=O (stereo unspecified) | inconclusive: 7.08 µM [activator, full curve, poor fit]
COc1ccccc1CNc1nc2ccccc2c2nc(-c3cccc(C)c3)nn12 | inconclusive: 11.2 µM [activator, single point]
O=C(NCCc1ccccc1)c1noc2c1CCc1ccccc1-2 | inactive
CC(C)CCNC(=O)c1ccc(CS(=O)(=O)Cc2ccccc2F)o1 | inconclusive: 12.6 µM [activator, single point]
